# Measured values published in the supplement of paper PMC11417369.
# The other results are listed elsewhere or left out.
# Test system: PF3D7_0420300 AP2 domain 1 (GST-tagged)
# Test: gcPBM binding intensity (ln(normalized median fluorescence intensity)); higher = stronger DNA binding
# Procedure, shortened: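 Binding intensity is defined as the maximum Masliner-normalised natural-log median intensity across replicate spots for either probe orientation. It was measured on an Agilent 4 × 180k array of primer-extended double-stranded 36-bp intergenic genomic probes and negative controls, to which GST-tagged P. falciparum DNA-binding domains made in E. coli were applied for 1 h in 1× PBS with 1% milk, 0.2 mg/ml BSA, 0.5% salmon testes DNA and 0.03% Triton X-100. Detection was by Alexa488 anti-GST antibody and scanning at 488 nm.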
row,Sequence,gcPBM binding intensity (ln)
1,TACTTTCACATTAAATGTACGTATAGTTTCATTCTT [XGTACX_site8528],9.43
2,ATATTAAAAATATATACACACATATATATAAATATA [CACACA_site2257],9.37
3,ATAAATATGGAGCACACACACATAAACATACAGATA [CACACA_site4395],10.1
4,TTTGGAGAATTCATAGTGCATTTATTTATTGTTAAT,9.28
5,TATATTTAAGTACATAAATAAGCCCATTTACATACA [CACACA_negctrl_site1224],9.18
6,CATACATACATACATACACACATATATAAATATATG [CACACA_site7028],9.8
7,TAAGTGATCGCATAATGTACATATTATTTATTATTT [XGTACX_site3061],9.12
8,TACATTTAAAAAAAAACACACATATTTATATTTATA [CACACA_site7236],9.23
9,GGAAGGATATAACATACACACACACCCATATATATA [CACACA_site9376],10
10,TTATGTATTTATTTATGTACTAATTGTATGCATATT [XGTACX_site6436],9.33
11,TTTCCTGGTCAAGGGGTTACGGTTACGTCCTCTTGC [CACACA_negctrl_site856],8.91
12,CATATACATAGACACACACACACATAAATAAATATA [CACACA_site6749],10.1
13,ATTTGTATATATAATTGTACGCATATTCTATACGAT [XGTACX_site7367],9.22
14,ATACTTTATAAATACTAAAGTGTATTTTGTAATATA [CACACA_negctrl_site1710],9.1
15,TGTAGAAGAACCCATGCATGCAGTATGAAAAAAAAA [TGCATGCA_site907],9.19
16,AAAAAAAGAAAAAAACGTACATGAAAATTTTTTGTT [XGTACX_site5135],9.42
17,ATAAATCCCAAAACCTTGCAAGACAACGTTTGATCA [CACACA_negctrl_site1327],9.17
18,CTATATAAAAAAATTGCACACATAAATATATACATA [CACACA_site8325],9.62
19,TTCTAAAATTATATAGTGCAATTATTTTATTTTTCT,9.17
20,AAAAAAATAAAACACATACATATATGTATATATATA [GTGCAC_negctrl_site390],9.47
21,TAAATATATATATAAGTGCATTATATATATATATAA,9
22,ATATGATAGTTTATATGTACATAAATAAATACATAC [XGTACX_site2917],9.34
23,ATCTCTTACATATTCACACACATATAAATAACTACA [CACACA_site6816],9.73

row,Sequence,gcPBM binding intensity (ln)
1,ATTAATAATTATTATGGTACACATGTAACTACTCTC [XGTACX_site198],9.21
2,AAAGAAAAAAAATAATGTACATATGTATTTGAGAAA [XGTACX_site3571],9.41
3,TATATTATAATATTCACACACTAACGTAAATCATTG [CACACA_site7318],9.42
4,TGGCAAAATAGGCACACACACATATACAGATATATT [CACACA_site4727],9.9
5,TCAATGAAATTAATATGTACATATTTTTATATAGTA [XGTACX_site7955],9.07
6,AAAAAATATATATATATATATATGTAATATTTTTTT [XGTACX_negctrl_site439],9.07
7,AAAACTATAAAAATTTTACACACTGTTTTTAAATAA [CACACA_site3667],9.17
8,TGATCAAGTAAGAAAAGTACAAAAAAAGTAAAAAAT [XGTACX_site6529],9.4
9,GTTCTTTCAAATTATACACACCAAAAAAAAAAAAAA [CACACA_site5660],9.18
10,GCGTGTGTACAATGAGTGCATATCTAAAGGGAAGAT,9.77
11,ATAAGTTTTTATTTTCTGCACTGTCGAATAATAGTT,9.27
12,GATATGTTTTATTATGTTGATGATAACAGGTAGTTT [CACACA_negctrl_site356],9.35
13,AAAAAAAACATACATACACACACATAAATATATATA [CACACA_site8864],10.3
14,ATGGATTATTTTTAAACATGCAGTAGTGATGAAAAA [TGCATGCA_site346],9.18
15,TGTTCAGTATGGCACACACACAACAAAATAAAAAAA [CACACA_site4368],9.61
16,GGTTTACCCTATAAATGTACTCATAAATTATATATA [XGTACX_site5771],9.2
17,ATACGAAATAGAAACACACATACAATAAATAAATAT [CACACA_site2017],9.99
18,TTTTTTTTTTTTTTTTGTACATATACATATATATAT [XGTACX_site1981],8.98
19,AGTAGCAAATATTAAGTGCATATTATATAATGTGTA [GTGCAC_site9546],9.32
20,ATAAATATGGCAGTACGTACGTATATTCATATTCAT [XGTACX_site8042],9.37
21,ATTAAAAAAAAAAAAAAAAAACAAAAAAAAAAAAAA [CACACA_negctrl_site1187],8.45
22,TATATAAACATCGGTAGTACACACATTCATGTATTT [XGTACX_site6443],9.6
23,GGATCATTTTTAAAGGAACACACAAAAAAAATTATA [CACACA_site8381],9.2

row,Sequence,gcPBM binding intensity (ln)
1,ATGATATGGATAAATACACACAATATAATAATGGGT [CACACA_site4905],9.86
2,AAAAAAAACAGACACACACACATTCAATATAAAACA [CACACA_site41],10.2
3,ATATCTTATATTATCACACACACACCCACAAAACAG [CACACA_site1464],10
4,ATATGTATAAATATAAATATATATATATATATATAT [CACACA_negctrl_site705],9.15
5,ATTTTATATATGTGTTGTACGGTGAACATTTTGATA [XGTACX_site6538],9.44
6,ACGTTAATATCTACAAGTACCCACATTAACAGGAAA [XGTACX_site2616],9.31
7,TGCGGAAATAAGTGCACACATAGATATATGTATTTT [CACACA_site3689],9.44
8,ATCTATATCTATAATACACACATCATAAAATATGTA [CACACA_site7230],9.5
9,ATATTATATATGTATAGTACATATTATAAGAAAAAT [XGTACX_site3457],9.27
10,ATATATATTAATAATGCATGTGATATAAATTAATAT [TGCATGCA_site930],9.3
11,CGGCACATTCTATATACACACATATAAATATATACA [CACACA_site566],9.56
12,TACAATTCGTAATACACACACATATAAATAAATATT [CACACA_site7720],9.77
13,ATATAAAATATGTATGAGGAATAAAATTAAAAAAAA [XGTACX_negctrl_site173],9.36
14,TTTTTTTTGAAGAATACATGCATATTTTCTATATTC [TGCATGCA_site43],9.15
15,ATAAAAAAAGATGAACGTACATATATTTTAAAAATC [XGTACX_site5950],9.32
16,AATATACAAATAAAGGTGCGAGATATTTTTACTTTT,9.41
17,ACAATATGCAAAAAGTGTACACATTCATTTATATAA [XGTACX_site1061],9.29
18,TATTAAATATATATTACATGCAAAAAAAAAAAACAA [TGCATGCA_site705],9.32
19,GTAAATATTTGTTGGGTGCTATCAATTATTTCAAAG,9.37
20,TGTGTATATTATATGTGTACATATCAATGTTTATAT [XGTACX_site1885],9.47
21,TAATATTAAATAAATAAAATATATAATATATATATA [XGTACX_negctrl_site49],8.96
22,TAATATATAACGTGCACACACACATCTACGTATGAA [CACACA_site5080],9.89
23,TGGCATTAAAATTTAGTGCATATATCTTAGCATGGG,8.96

row,Sequence,gcPBM binding intensity (ln)
1,AAAAATAAAAGGTGTGCACACAAAAATATATATATA [CACACA_site8507],9.92
2,TATTGTTATTAAAAATGTACATATAAATTTCTTATT [XGTACX_site1409],9.1
3,GTATGATGCATAAGAGTGCATAAGGATATTTCTTCA,9.11
4,AATTTAAAAAATAACAGTACATAAAATATATACATA [XGTACX_site7917],9.27
5,CATGCTACATCTTATTGTACTTATCTAATGTTAGTA [XGTACX_site1863],9.31
6,AAAAAGGAGAAACACACACACACACCCATATATATA [CACACA_site905],10.2
7,AGGCAATATTATATATATATATATATATATATATAT [CACACA_negctrl_site826],9.2
8,TCTTTTTACACCTCTTACATAAAACAAAATAAGGGG [XGTACX_negctrl_site12],9.57
9,TATACATGTTATGTACATCTAATCACACGTGCAATA [CACACA_negctrl_site1267],9.1
10,TTGTAAATTTACATTTGTACATAAATATATTAATAT [XGTACX_site3969],9.13
11,TGTATGTTTGGGTGCACACATAAATATTATATATAG [CACACA_site3397],9.35
12,ATATATATAAAACACACACACACATGGTTTAAAACT [CACACA_site4219],10.2
13,TGCAGTCTGGAGAAGAGTACACAGTATCTGGTAACA [XGTACX_site2037],9
14,TATATATTCATATGTTGTACATAAATACAAATAAGA [XGTACX_site5602],9.11
15,AACAGAATAATACTAAATGAACGATTTCTCTTTATG [GTGCAC_negctrl_site376],9.28
16,AAAGGTAAATGTAAATAAATAAATAATAAATATATA [GTGCAC_negctrl_site681],9.35
17,ATTAATATGAATAAAACACACATATATAATTTGTAA [CACACA_site1929],9.44
18,AAAAAAAAAAAGAAATGTACATGAATATTTTAAATG [XGTACX_site4069],9.12
19,ATTATTATTTTACGTAGTACATATAATAAATATTTA [XGTACX_site8934],8.97
20,GGAATATTATTTCAATGTACATTTTGAGATTAGAAT [XGTACX_site8187],9.04
21,TATCCATATTTGTTCACACACACACGGATTTATATA [CACACA_site7649],10.1
